Test results reported in the supplement of paper PMC8728848.
The list shows a part of the results.

Columns and labels:
Experiment in all cases: glycan array binding signal (z-score within array); higher = stronger binding
Conditions in all cases: glycan notation: IUPAC condensed, linker removed
[1] = biological target: Fuc(a1-2)[GalNAc(a1-3)]Gal(b1-3)GlcNAc(b1-3)GalNAc
Method in brief: (§1)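 The binding signal is a Z-score computed within each array and averaged over linkers. Arrays of the same protein sequence at different concentrations or buffers were also averaged together. Data originate from 3228 arrays in the Consortium for Functional Glycomics database, kept only where the protein sequence was available.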

[2] = biological target: Fuc(a1-2)[GalNAc(a1-3)]Gal(b1-3)GlcNAc(b1-6)GalNAc
Method in brief: as §1

[3] = biological target: Fuc(a1-2)[GalNAc(a1-3)]Gal(b1-4)Glc
Method in brief: as §1

[4] = biological target: Fuc(a1-2)[GalNAc(a1-3)]Gal(b1-4)GlcNAc
Method in brief: as §1

[5] = biological target: Fuc(a1-2)[GalNAc(a1-3)]Gal(b1-4)GlcNAc(b1-2)Man
Method in brief: as §1

[6] = biological target: Fuc(a1-2)[GalNAc(a1-3)]Gal(b1-4)GlcNAc(b1-2)Man(a1-3)[Fuc(a1-2)[GalNAc(a1-3)]Gal(b1-4)GlcNAc(b1-2)Man(a1-6)]Man(b1-4)GlcNAc(b1-4)GlcNAc
Method in brief: as §1

[7] = biological target: Fuc(a1-2)[GalNAc(a1-3)]Gal(b1-4)GlcNAc(b1-2)Man(a1-3)[Fuc(a1-2)[GalNAc(a1-3)]Gal(b1-4)GlcNAc(b1-2)Man(a1-6)]Man(b1-4)GlcNAc(b1-4)[Fuc(a1-6)]GlcNAc
Method in brief: as §1

[8] = biological target: Fuc(a1-2)[GalNAc(a1-3)]Gal(b1-4)GlcNAc(b1-3)Gal(b1-4)GlcNAc
Method in brief: as §1

[9] = biological target: Fuc(a1-2)[GalNAc(a1-3)]Gal(b1-4)GlcNAc(b1-3)Gal(b1-4)GlcNAc(b1-3)Gal(b1-4)GlcNAc
Method in brief: as §1

[10] = biological target: Fuc(a1-2)[GalNAc(a1-3)]Gal(b1-4)GlcNAc(b1-3)GalNAc
Method in brief: as §1

[11] = biological target: Fuc(a1-2)[GalNAc(a1-3)]Gal(b1-4)GlcNAc(b1-3)[Fuc(a1-2)[GalNAc(a1-3)]Gal(b1-4)GlcNAc(b1-6)]GalNAc
Method in brief: as §1

[12] = biological target: Fuc(a1-2)[GalNAc(a1-3)]Gal(b1-4)GlcNAc(b1-6)GalNAc
Method in brief: as §1

[13] = biological target: Fuc(a1-2)[GalNAc(a1-3)]Gal(b1-4)[Fuc(a1-3)]GlcNAc
Method in brief: as §1

[14] = biological target: Fuc(a1-2)[GalNAc(a1-3)]Gal(b1-4)[Fuc(a1-3)]GlcNAc(b1-3)GalNAc
Method in brief: as §1

[15] = biological target: Fuc(a1-2)[GalNAc(a1-4)]Gal(b1-4)GlcNAc
Method in brief: as §1

[16] = biological target: Fuc(a1-2)[GalNAc(b1-3)]Gal
Method in brief: as §1

Fuc(a1-3)GlcNAc = biological target: Fuc(a1-3)GlcNAc
Method in brief: as §1

[17] = biological target: Fuc(a1-3)[Gal(b1-4)]Glc6S
Method in brief: as §1

[18] = biological target: Fuc(a1-3)[Gal(b1-4)]GlcNAc
Method in brief: as §1

[19] = biological target: Fuc(a1-3)[Gal(b1-4)]GlcNAc(b1-2)Man
Method in brief: as §1

[20] = biological target: Fuc(a1-3)[Gal(b1-4)]GlcNAc(b1-2)Man(a1-3)[Fuc(a1-3)[Gal(b1-4)]GlcNAc(b1-2)Man(a1-6)]Man(b1-4)GlcNAc(b1-4)GlcNAc
Method in brief: as §1

[21] = biological target: Fuc(a1-3)[Gal(b1-4)]GlcNAc(b1-2)Man(a1-3)[Fuc(a1-3)[Gal(b1-4)]GlcNAc(b1-2)Man(a1-6)]Man(b1-4)GlcNAc(b1-4)[Fuc(a1-6)]GlcNAc
Method in brief: as §1

[22] = biological target: Fuc(a1-3)[Gal(b1-4)]GlcNAc(b1-3)Gal(b1-3)[Fuc(a1-4)]GlcNAc
Method in brief: as §1

[23] = biological target: Fuc(a1-3)[Gal(b1-4)]GlcNAc(b1-3)Gal(b1-4)[Fuc(a1-3)]GlcNAc
Method in brief: as §1

[24] = biological target: Fuc(a1-3)[Gal(b1-4)]GlcNAc(b1-3)Gal(b1-4)[Fuc(a1-3)]GlcNAc(b1-3)Gal(b1-4)[Fuc(a1-3)]GlcNAc
Method in brief: as §1

[25] = biological target: Fuc(a1-3)[Gal(b1-4)]GlcNAc(b1-3)GalNAc
Method in brief: as §1

[26] = biological target: Fuc(a1-3)[Gal(b1-4)]GlcNAc(b1-6)GalNAc
Method in brief: as §1

[27] = biological target: Fuc(a1-3)[Gal(b1-4)]GlcNAc(b1-6)[Gal(b1-3)GlcNAc(b1-3)]Gal(b1-4)Glc
Method in brief: as §1

[28] = biological target: Fuc(a1-3)[Gal(b1-4)]GlcNAc6S
Method in brief: as §1

[29] = biological target: Fuc(a1-3)[Gal3S(b1-4)]Glc
Method in brief: as §1

[30] = biological target: Fuc(a1-3)[Gal3S(b1-4)]GlcNAc
Method in brief: as §1

[31] = biological target: Fuc(a1-3)[Gal3S(b1-4)]GlcNAc6S
Method in brief: as §1

[32] = biological target: Fuc(a1-3)[GalNAc(b1-4)]GlcNAc
Method in brief: as §1

[33] = biological target: Fuc(a1-3)[GalNAc(b1-4)]GlcNAc6S
Method in brief: as §1

Fuc(a1-4)GlcNAc = biological target: Fuc(a1-4)GlcNAc
Method in brief: as §1

Fuc(b1-3)GlcNAc = biological target: Fuc(b1-3)GlcNAc
Method in brief: as §1

Gal(a1-2)Gal = biological target: Gal(a1-2)Gal
Method in brief: as §1

B1: DC-Sign (Homo sapiens), Q9NNX6 (protein)
chain: MSDSKEPRLQQLGLLEEEQLRGLGFRQTRGYKSLAGCLGHGPLVLQLLSFTLLAGLLVQVSKVPSSISQEQSRQDAIYQNLTQLKAAVGELSEKSKLQEIYQELTQLKAAVGELPEKSKLQEIYQELTRLKAAVGELPEKSKLQEIYQELTWLKAAVGELPEKSKMQEIYQELTRLKAAVGELPEKSKQQEIYQELTRLKAAVGELPEKSKQQEIYQELTRLKAAVGELPEKSKQQEIYQELTQLKAAVERLCHPCPWEWTFFQGNCYFMSNSQRNWHDSITACKEVGAQLVVIKSAEEQNFLQLQSSRSNRFTWMGLSDLNQEGTWQWVDGSPLLPSFKQYWNRGEPNNVGEEDCAEFSGNGWNDDKCNLAKFWICKKSAASCSRDEEQFLSPAPATPNPPPA
With B1 the “glycan array binding signal (z-score)” value [1] was -0.164, the “glycan array binding signal (z-score)” value [2] was -0.18 and the “glycan array binding signal (z-score)” value [3] was -0.052. The “glycan array binding signal (z-score)” value [4] was -0.065, the “glycan array binding signal (z-score)” value [5] was -0.162 and the “glycan array binding signal (z-score)” value [6] was -0.161. The “glycan array binding signal (z-score)” value [7] was -0.049, the “glycan array binding signal (z-score)” value [8] was -0.129 and the “glycan array binding signal (z-score)” value [9] was -0.15. For the same binder, the “glycan array binding signal (z-score)” value [10] was -0.15, the “glycan array binding signal (z-score)” value [11] was -0.189 and the “glycan array binding signal (z-score)” value [12] was -0.2. For the same binder, the “glycan array binding signal (z-score)” value [13] was 0.795, the “glycan array binding signal (z-score)” value [14] was 0.298 and the “glycan array binding signal (z-score)” value [15] was 0.118. For the same binder, the “glycan array binding signal (z-score)” value [16] was -0.172, the “glycan array binding signal (z-score)” value (Fuc(a1-3)GlcNAc) was -0.093 and the “glycan array binding signal (z-score)” value [17] was -0.122. The “glycan array binding signal (z-score)” value [18] was 0.575, the “glycan array binding signal (z-score)” value [19] was -0.16 and the “glycan array binding signal (z-score)” value [20] was 1.29. The “glycan array binding signal (z-score)” value [21] was -0.193, the “glycan array binding signal (z-score)” value [22] was 5.28 and the “glycan array binding signal (z-score)” value [23] was 2.48. For the same binder, the “glycan array binding signal (z-score)” value [24] was 8.36, the “glycan array binding signal (z-score)” value [25] was 0.036 and the “glycan array binding signal (z-score)” value [26] was -0.133. For the same binder, the “glycan array binding signal (z-score)” value [27] was 0.082, the “glycan array binding signal (z-score)” value [28] was -0.065 and the “glycan array binding signal (z-score)” value [29] was -0.13. For the same binder, the “glycan array binding signal (z-score)” value [30] was -0.138, the “glycan array binding signal (z-score)” value [31] was -0.13 and the “glycan array binding signal (z-score)” value [32] was 0.283. The “glycan array binding signal (z-score)” value [33] was 1.43, the “glycan array binding signal (z-score)” value (Fuc(a1-4)GlcNAc) was -0.011 and the “glycan array binding signal (z-score)” value (Fuc(b1-3)GlcNAc) was 0.158. For the same binder, the “glycan array binding signal (z-score)” value (Gal(a1-2)Gal) was -0.183.
